Experimental data from the supplement of paper PMC11417369.
The other results are listed elsewhere or left out.

These sequences were tested on PfAP2-HC AP2 domain (GST-tagged) (assay: gcPBM binding intensity (ln(normalized median fluorescence intensity)); higher = stronger DNA binding).
How it was run: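 GST-tagged P. falciparum DNA-binding domains produced in E. coli were incubated for 1 h on an Agilent 4 × 180k array of primer-extended double-stranded 36-bp intergenic genomic probes with negative controls. Binding intensity is the highest Masliner-normalised natural-log median intensity across replicate spots of either probe orientation, with bound protein detected by Alexa488 anti-GST antibody at 488 nm.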

Sequence	gcPBM binding intensity (ln)
TATATTAAAATTTACTGTACTTTTTTTATTTTAAAA [XGTACX_site4077]	9.52
AAAAAAAATACAAAAAGTACAAAAAATACAAAAAAA [XGTACX_site8844]	9.71
TTCTTTTTTTAAAGAAGTACTATATTTTAAATTATA [XGTACX_site5059]	9.41
TTTAAAATAAATTAATAGAACAAAAATAAAATGATT [GTGCAC_negctrl_site375]	9.63
ATGTATATATATATATGTACATATTTTTTATATGTA [XGTACX_site441]	9.69
AATTTTATTACTTTTACACACCTATATATCATTCAT [CACACA_site7525]	9.96
ACCTTAAATAATACATGTACAAAAAAATTTATAATA [XGTACX_site1043]	9.54
AAGAATAAGGAAAAATGTACAGAATGCACATATGAA [XGTACX_site4705]	9.73
TAGGGATTATACCACACACACATACACATAAATATA [CACACA_site3178]	10.3
TTTCAAATGATTAAGTGTACATGTTTGCTTGCTCTT [XGTACX_site4697]	9.47
TTTTTTTTTGTTATGTTGCACTTTGCCATATTATTA [GTGCAC_site9844]	9.87
AATAATAAAAAAAGTGCACACACATAATATATATAT [CACACA_site9100]	10.1
AACAATATATTGATATTATTTTAAGTGATTATATAT [XGTACX_negctrl_site205]	9.65
TATAAAAAAATAAAAGGAATATACTTGCAAAGGGTA [CACACA_negctrl_site1438]	9.83
ATGTAAGTAATTATCTGTACACATAATATATATATA [XGTACX_site2618]	9.82
AATATAAAAAATAATACACACACATGGCGACAAAAT [CACACA_site8765]	10.3
TACATATTACTATTCAGTACATATTTTTTTTTCATT [XGTACX_site7468]	9.81
TATATAGGTATATATACACACAACGGTTATAAATAT [CACACA_site4759]	9.94
TATAAAGACACGAAAACACACATATGTAAATATATA [CACACA_site8056]	10
AGGATAAAAGTTATGGTGCATTAACCTATTTAAATA	9.51
TAGTTTTGAAAACAAACACACAAAAAAAAAAAAAAA [CACACA_site1692]	9.34
CACATAAATAATTAAACACACATTGTTCTAGACAAT [CACACA_site2378]	9.82
TTTGAGTTACTATTCACACAAAATGGATAAATTAAT [CACACA_site5626]	9.56
TCCTCATTTTATCATACACACTTGTTTATATGTGTG [CACACA_site6548]	9.88

Sequence	gcPBM binding intensity (ln)
TATATATATATAATTTGTACACACAAATATGCATAT [XGTACX_site7297]	9.85
ATATATAATAATTGTAGTACAATTAATAAATAAAAT [XGTACX_site3840]	9.89
AATATTTATAAATTTACACACACACCCGTGAACATA [CACACA_site1910]	10.2
TTATCATTTTAAATCACACACATATATAAATATGTA [CACACA_site7359]	9.73
ATACGATTGCAGTCAAAAAGGAAAATATAAAAAAAG [XGTACX_negctrl_site124]	9.5
TGGGGTATTAAAAAAACACACAAAAAAAATATAAAG [CACACA_site1915]	9.57
AAAATGTATATTGGCGCATGTAAACAAATACTATAC [TGCATGCA_site385]	9.96
GATAATAATAAGTGTACACATATATTTAGAAGAGTA [CACACA_site4245]	9.96
ATATATATGTATGTATATATATATATATATGTTTGA [CACACA_negctrl_site107]	9.86
TTAATAACGTAATGTAAATGTTTCATACCCTTTTTT [CACACA_negctrl_site988]	9.58
TTTTTTTTTCTGTATACACACAAAATTTATTTTTTA [CACACA_site2873]	9.83
ATAAAATAAAAACATGCACACTTTATTTTTTTTAAG [CACACA_site5545]	9.59
AAAGAAGGGGGGGGAAAAAAAAATAAAAGAGGAAAA [XGTACX_negctrl_site92]	9.37
AAATTTAGTAAAAAATGTACGTAAAATGTAAAATAT [XGTACX_site1314]	9.86
ATACTAACATTTTTTTGTACATATAACTATAAAATA [XGTACX_site1033]	9.36
AAGGTAAACGGACACACACACATACAAAAAAAAAAA [CACACA_site5961]	11.3
TGATATTATAGATATACACACATGTATGTATTTATA [CACACA_site6758]	9.78
AGACCTATGATATATACACACATATAAATAAATATA [CACACA_site6725]	9.77
TTATTAAATATAAATATGTATCTTTTATGTTATATT [CACACA_negctrl_site306]	9.57
TAAATCCGCAGGCACACACACATATTAATAAAAAAA [CACACA_site3991]	10.8
AAAAAAAAAAGACACACACACATAGACCTCCAATAG [CACACA_site7646]	10.5
TATTTTACGACATACCAAAAAAAAAAAAAAAAAATA [CACACA_negctrl_site1254]	9.43
AATGTTAAACTATGATGTACGGTTAAAAATATAATT [XGTACX_site893]	9.58
TATATATTATATAAATAAATAAATATATATATTTAT [TGCATGCA_negctrl_site270]	9.15

Sequence	gcPBM binding intensity (ln)
AATGATTTTGATTAACGTACGTACAAATATATATAT [XGTACX_site6604]	9.6
AAAAAAGAAATAAGGATACACACTATTGATAAAAGT [CACACA_site272]	9.94
CCAGTGTGCACCTTGCGTACATATTAAATTAATTAA [XGTACX_site3729]	9.49
TTTTTTAAATTTAAAGTGCATTATTATATATTTGTA	9.49
AAAAAAAAAATATATATATATATATATATATATATA [GTGCAC_negctrl_site467]	9.77
CAAAAAAAAAAACGGGTGCTAAATTTTATTTTTTAT	9.52
ATAAAGCACACCGACACACACATATATATATATATA [CACACA_site1047]	10.5
TATCATGGTTCGGATTGTACATATATGAATTTTTTT [XGTACX_site7478]	9.67
GGATAAGAAAAGAAGTGTACATATATATATATATAT [XGTACX_site8290]	9.81
TTCTTTTAAAAATATATTTTAAGAAAATTTAATTTA [GTGCAC_negctrl_site237]	9.13
TTTATTTTTTGAAACACACACAAAAAAAATGATACA [CACACA_site1881]	9.9
TAAAATGAATAAAATTGTACTTAATAATATTTTAAA [XGTACX_site5532]	9.38
AATATATGTTAAAATGGTACACAATTATTATATATT [XGTACX_site6407]	9.71
AAAAAAAAAAAAAAGAGTACTTTTTTCACATTCATC [XGTACX_site8795]	9.51
AAAAAAAAAAAAATTACACACATACCTATAAGAATA [CACACA_site7097]	9.94
TTTTCTTTTTTCTTTTTAACTCTTACATAATAGGTG [CACACA_negctrl_site642]	9.34
GGATATATAAGATACACACACAAATTAAATATAAAA [CACACA_site7333]	10.2
TAATATATAAATATATGTACATAATTAATAGGATAT [XGTACX_site237]	9.8
TATTCCTAATTTAAAAGTACATATATATATATATAT [XGTACX_site3008]	9.6
TAAATCAAAAACAACAAGTCATATTAAAGATGGTAT [CACACA_negctrl_site1321]	9.77
CTTATAATATTACGGGTGCTATAAATACATTATATT	9.72
TTGTTTCAAAATTAAACACACACAAAAAAAAAAAAA [CACACA_site8856]	9.88
TATATTTATATCATCACACATTTTTTTTTTCTTTTT [CACACA_site6150]	9.59
AAGGAAAACAGTAGGTGTACCAAACGTCCTAGGAAC [XGTACX_site3659]	9.78
